Measurements reported in the supplement of paper PMC11417369.
This is one part of the list.

Tested on: PfSIP2 AP2 domain 1 (GST-tagged)
Assay: gcPBM binding intensity (ln(normalized median fluorescence intensity)); higher = stronger DNA binding
How it was run: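 An Agilent 4 × 180k array carrying primer-extended double-stranded 36-bp intergenic genomic probes and negative controls received GST-tagged P. falciparum DNA-binding domains expressed in E. coli, about 25 μg on average, for 1 h. The binding buffer contained 1× PBS, 1% milk, 0.2 mg/ml BSA, 0.5% salmon testes DNA and 0.03% Triton X-100. Binding intensity is the top Masliner-normalised natural-log median intensity across replicate spots of either probe orientation, read after Alexa488 anti-GST antibody staining and a 488 nm scan.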

Sequence | gcPBM binding intensity (ln)
ATATATTATATTATATGTACTTAAAAAAGTGCAAAG [XGTACX_site318] | 8.67
TATATTCAATTTTTGGTGCGTAAATTAATACAAACA [GTGCAC_site9764] | 8.85
ATGCACGGAAAAATATGTACTTAATTTCAATAATAT [XGTACX_site8311] | 7.32
CGGACATACTAACGGACACACGTAAGAAAAAAAAAG [CACACA_site4504] | 6.95
TTTTTTCAATAAATAATCGTATATTGAATAATAATA [CACACA_negctrl_site822] | 6.66
AGAGAGAACGGTATAACATGCGATAAATTTTAGAAG [TGCATGCA_site357] | 6.92
TATATGTCCATATTTCCACACACATATTATTTTTAT [CACACA_site9266] | 6.98
TATTAATTTTTCCTTTTTTTTTTACCCCTTTGTACA [CACACA_negctrl_site947] | 6.91
ATTTTAATTTTGTATACACACATTTGAATTATTAAT [CACACA_site3528] | 6.89
AAATAATACATTCGTACTACACATATATATTAAATA [XGTACX_site7806] | 7.09
AATATATACATATATACACACACATATATATATATA [CACACA_site8907] | 9.22
TAAAATGTTATAAGAACATGCAATTCCTTTTATTAT [TGCATGCA_site408] | 6.82
ATAATATGAGTCCCACAAAATAGACCATACGAATAT [CACACA_negctrl_site50] | 6.92
TATAAATTTATACCAGTGCATTTTGAAATATATATA | 9.08
TGGAACCATAAAAAGTGTACACATATAAAAAATATG [XGTACX_site96] | 7.13
TATATATTTTATATATGTACATATTTATATGTTTCT [XGTACX_site1818] | 6.85
AAAAAAAAGTTATATACACACATATAAATATAAATA [CACACA_site6683] | 6.88
TTTTTTTTTTTTTGAACACACATTATTAACTTTTAT [CACACA_site6281] | 7.01
CGCGAACATACATACACACACATATATATATATGTA [CACACA_site205] | 7.13
AAAAATATTAAAAGGCGTACAATACCTGTATGCAAC [XGTACX_site6069] | 7.17
CATGTAAAATATTAAAGTACATGATTATATATATAT [XGTACX_site7486] | 8.79
TATATTTATATAATATGTACATATTTTTTAATATTT [XGTACX_site3834] | 6.95
TATTTTATTTTCCGAAGTACAAAAGCAAAAAAAAAC [XGTACX_site103] | 7.44

Sequence | gcPBM binding intensity (ln)
AGCTAAAATATTTTTGCACACGATTTTTTTTTTTTT [CACACA_site1140] | 7.18
TTCAATGCTAATTTATGTACATATGTATATAAAATA [XGTACX_site8335] | 7.03
CCCAAAAAAAATTTATGTACTTATTAAATATATATA [XGTACX_site6455] | 7.28
TTTATATAAATTTAAGTGCAAAATGAACAAGTGAAA | 7.88
AAAATATATATTTGTTGTACAATATTAATTATTAAA [XGTACX_site1612] | 7.13
TGCAAAGGTGAAAGAACACACAAAAAAAAAAAAAAA [CACACA_site4024] | 6.91
TTTTTAATCTCATATGTATAATATATTTTTATTAAA [XGTACX_negctrl_site236] | 6.86
AATTTTAGATTTAGCACACATTTTTTTTTTTTTTTT [CACACA_site6105] | 7.58
TTCAAAGGGAAATTAACACACACATATATATATATA [CACACA_site8777] | 9.41
AAAAAAAAAAAAAGAACATGCGACTTTAAGAACTGG [TGCATGCA_site792] | 6.93
TATGAAAATAAAATATGTACATATTTTAAATGTTAT [XGTACX_site7352] | 7.22
CAAATGTGTTCTTCAGGTACAGATACACATTTATGA [XGTACX_site2664] | 6.82
TAAAAAATTATATATTGTACGAATGCATAAAAAAAA [XGTACX_site4606] | 7.37
CACCATGTTAACAAAGCATGCATCTCTATAGTTTTA [TGCATGCA_site97] | 7.08
TTTATTCATTTCTAAAAATATTAAAATAGAATGAAT [CACACA_negctrl_site325] | 6.66
AAACAAAAAATATATACACACTAAACATAAAAAAAA [CACACA_site4185] | 6.86
TAAAAAAAAATAAATGGTACACAATTAAATGTTTAT [XGTACX_site5255] | 6.9
ATAAGAAAATCAAAAAGTACTTTTTACAAAGATAAA [XGTACX_site824] | 6.79
ATATACTATATATAATGTACATATATATTATTATGC [XGTACX_site2957] | 7.09
TAGTTTTTTATATATTGTACAAATAATATATTATAT [XGTACX_site2564] | 7.13
ATTTTATGATATATTTGTACTTAACATTTGGATATA [XGTACX_site5888] | 7.04
TCTTTTTTTAATAAAACATGCAATATTATATATGTA [TGCATGCA_site236] | 7
TAAATTCTTTAAAACTTTAAAACAAAAAAAAAAAAA [CACACA_negctrl_site1078] | 6.8

Sequence | gcPBM binding intensity (ln)
GTAATTATTAATAAAACATGCGTATAAAATTTTCTC [TGCATGCA_site50] | 7.02
AAAAAAATATATATATATATATATATATATTTATAT [XGTACX_negctrl_site86] | 7.59
TTTGCGTAGAAATGTGTGCACTGATATTTATAATAA [GTGCAC_site9526] | 9.99
TGAACTCATAGGAAAACACACATATGGGTAATATAT [CACACA_site187] | 6.98
ATTTTCCTTTTACCACGTACACATAAAAACGTTATA [XGTACX_site3595] | 7.49
AAAAAAAATCAAATGGGTACTTATTCTTAATAATAT [XGTACX_site3792] | 7.04
ATAAATATATTTAAATGTACATAATATATATATATA [XGTACX_site5137] | 8.95
TATATATATTTAAAGGTGCAGATGCCAGTGTATATT | 10.1
AATGAACTCACGAGCACACACACACCGATATATATA [CACACA_site4710] | 7.49
ATATATACATACAAATTAATTACGAGGAATATATTA [XGTACX_negctrl_site417] | 6.86
ACATATTCATATGGAAGTACGATAATGTAGTCATAT [XGTACX_site7080] | 6.83
TATACATATATATACACACACACATATATATATATA [CACACA_site1299] | 9.32
GGAACTTATTTTTATACACACATATGTGCATATTAT [CACACA_site629] | 7.64
GTAAAAAAATTAAAAATTAACAAGGAATTAAGTATA [CACACA_negctrl_site1688] | 6.65
ATCATAAATATAGCAACACACGGATTACATAAAATA [CACACA_site2796] | 7.08
TTAAAAAAATAATTAACACACACATGTATATCTATA [CACACA_site9026] | 6.82
TTGTAATAAATAAAAGTGCAGATATGGTTCCACTAA [GTGCAC_site9942] | 7.85
TGAATAAATATATATACACACATATCTGTATTTATT [CACACA_site4991] | 7.01
TATATATATACCAACACACATACATATATATATATA [CACACA_site1795] | 9.23
AAATTTGGCAGACACACACACACACGCACACGCACA [CACACA_site6423] | 8.2
CCCTCCCCATGTTTAGTGCAAAAATATTTGAAATTG [GTGCAC_site9873] | 8.61
TATGAAATTAGAATTACACACAGGAAAATAAAATGC [CACACA_site6822] | 7.33
ATATTACGCACAAAAAAAAAAAAAAAAAAAAAAAAA [CACACA_negctrl_site941] | 7.41

Sequence | gcPBM binding intensity (ln)
AAAATTAAAATTTTCACACAGATATATTTACAATTT [CACACA_site5692] | 6.66
ATGATGTGCTTTAAAAGTACTTAAGTTATATTCTTT [XGTACX_site7127] | 6.86
TAAATTAAAAAAAATACACACACACCGACACATATA [CACACA_site9084] | 7.12
AAAAAGAAGAATAATACACACAAATTACTTTATATA [CACACA_site6984] | 6.7
TTCGTAACTGATTCAACACACAAAAGGGGGAAAATT [CACACA_site1754] | 8.03
ATATATATATATATGTGTACATATATTAAGATATAT [XGTACX_site1065] | 9.25
AATTACAAATATTCATGTACATATTTATAAATACAT [XGTACX_site5430] | 7.1
ATATTATAGAAATATACACACATTGTTTTATAGCAT [CACACA_site7177] | 6.82
TATGTTATATAATATTGTACACAAAATGGTTTCTAT [XGTACX_site7686] | 7.17
AGGTATGTCTATAAATGTACATATGAGTTCAATTTC [XGTACX_site2244] | 6.96
CACAGTGATATAAAAACACACATGAATTCTAATTTC [CACACA_site6884] | 6.83
CATAAAAATATTAATAAACACACAATCAGATATTGA [CACACA_site9032] | 6.87
AAATATATATAAACAAGTACATATTTAAAAAAAGGA [XGTACX_site2631] | 7.21
ATATATATGAAACACACACACAAAAAAAAAAAAAAA [CACACA_site3647] | 7.11
ATAACACAAAATTGTTGTACACGTGTTAATAAGTGA [XGTACX_site4452] | 7.12
TAAAGTTATGCAATAACACACATATACAATACATAT [CACACA_site6698] | 6.9
AATATTTATATAAATGCATGCTGATACAACAGTCTT [TGCATGCA_site21] | 6.79
TATATAACCGAGTGCACACACAAAAAAAAAGTGAAC [CACACA_site6806] | 11.1
TATTAAATATTGTATACATGCAAATACTAGAAAATT [TGCATGCA_site370] | 7.04
AATAATATAAATATTACACACTAATTGTATTATAGA [CACACA_site6347] | 6.79
